US20190382481A1 (Janssen / Centocor, published 2019)

Experiments:
[1] = biological target: human CD33 (human, UniProt P20138); test: cell-based or functional assay
[2] = biological target: T1, Human CD33-C2-HSA (human); test: IBIS SPRi off-rate screen
T1 construct: C2 domain of human CD33 fused to HSA; also called C33W4; huCD33-C2-HSA

[3] = biological target: T2, Human CD33-V-HSA (human); test: IBIS SPRi off-rate screen; antigen as analyte
T2 construct: V domain of human CD33 fused to HSA; also called C33W3; huCD33-V-HSA
Protocol: (§1) To begin assessing the biophysical binding properties of the purified mAbs an off-rate screen was performed. 76 OMNIRat anti-CD33 mAbs were tested for binding to recombinant human CD33 ECD-HSA (C33W2) and cyno CD33 ECD-HSA (C33W1) proteins (Janssen production) and the off-rate was measured by IBIS MX96 SPRi array platform (Carterra; Newton, Pa.). […] The sensor chip was transferred to the Continuous Flow Microspotter (CFM) unit to capture each anti-CD33 mAb at 10 μg/ml for 10 minutes. Binding was measured on IBIS SPRi by single cycle kinetics without regeneration. Each antigen concentration series (3 μM in 3 fold dilution series) was sequentially injected from low (0.46 nM) to high concentrations (3 μM) to bind to captured mAbs with an association time of 5 minutes and dissociation time of 15 minutes using PBST (PBS with 0.005% Tween) as running buffer. The raw binding data (.trix file format) were referenced and aligned using SprintX software (Wasatch, Ver 1.9.3.2), then exported (.ibmx file format) to Scrubber software (Ver. 2.0) for 1:1 binding kinetic analyses (Wasatch, version 2.0.0.33) to extract the koff results.
(§2) CD33 is comprised of 2 IgG domains, the membrane distal V domain and the membrane proximal C2 domain. […]

[4] = biological target: T3, Human CD33 ECD-HSA (human, UniProt P20138 18-259); test: IBIS SPRi off-rate screen; antigen as analyte
T3 construct: Human CD33 ECD (Uniprot P20138) fused at the C-terminus to monomeric HSA (C58S) and a six-histidine tag; also called C33W2; huCD33 ECD-HSA; not shown: HSA (C58S) carrier, its junction or linker to the ECD, and the layout of the His tag
Protocol: as §1, §2

Sequence of human CD33 (P20138 18-364 limits assumed): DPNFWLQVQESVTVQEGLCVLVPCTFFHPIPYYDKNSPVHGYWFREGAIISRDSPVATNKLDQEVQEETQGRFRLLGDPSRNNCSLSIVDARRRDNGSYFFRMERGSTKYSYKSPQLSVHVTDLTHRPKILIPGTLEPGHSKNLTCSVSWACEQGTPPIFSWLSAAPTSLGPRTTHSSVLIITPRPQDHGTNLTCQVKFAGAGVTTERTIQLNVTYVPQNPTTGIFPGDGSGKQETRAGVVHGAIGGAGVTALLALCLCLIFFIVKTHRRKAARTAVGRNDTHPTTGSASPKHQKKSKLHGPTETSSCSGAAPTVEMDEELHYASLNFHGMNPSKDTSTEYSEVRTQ

Row | Binder | EC50 (nM), CD33 internalization assay (Protein A-MMAF cell viability, MOLM13) [1] | binding result [2] | koff [3] | koff [4]
1 | C33B806 (antibody) heavy: QLQLQESGPGLVKPSETLSLTCTVSGGSISSSSYYWGWIRQPPGKGLDWIGSINYSGSTYYNPSLKSRVTISVDTSKIQFSLKLRSVTAADTAVYYCARLDGYESPFDYWGQGTLVTVSSASTKGPSVFPLAPCSRSTSESTAALGCLVKDYFPEPVTVSWNSGALTSGVHTFPAVLQSSGLYSLSSVVTVPSSSLGTKTYTCNVDHKPSNTKVDKRV[in this place human IgG4 Fc with S228P F234A L235A (EU numbers)] light: DIQMTQSPSSVSASVGDRVTITCRASQGISSWLAWYQQKPGKAPKLLIYAASSLQSGVPSRFSGSGSGTDFTLTISSLQPEDFATYYCQQANSFPFTFGPGTKVDIKRTVAAPSVFIFPPSDEQLKSGTASVVCLLNNFYPREAKVQWKVDNALQSGNSQESVTEQDSKDSTYSLSSTLTLSKADYEKHKVYACEVTHQGLSSPVTKSFNRGEC | 0.22 nM | – | – | –
2 | C33B904 (antibody, human IgG4 S228P, kappa, F234A L235A) heavy: EVQLVESGGGLVQPGRSLRLSCAASGFTFDDYAMHWVRQAPGKGLEWVSGIGWSGGSIVYADSVKGRFTISRDNAKNSLYLQMNSLRAEDTALYYCAKDSPYGDFFDYWGQGTLVTVSSASTKGPSVFPLAPCSRSTSESTAALGCLVKDYFPEPVTVSWNSGALTSGVHTFPAVLQSSGLYSLSSVVTVPSSSLGTKTYTCNVDHKPSNTKVDKRV[in this place human IgG4 Fc with S228P F234A L235A (EU numbers)] light: DIVMTQSPDSLAVSLGERATINCKSSQTVFYSSNNKNYLAWYQQKPGQPPKLLISWASTRKSGVPDRFSGSGSGTDFTLTVSSLQAEDVAVYYCQHYYSTPYTFGQGTKLEIKRTVAAPSVFIFPPSDEQLKSGTASVVCLLNNFYPREAKVQWKVDNALQSGNSQESVTEQDSKDSTYSLSSTLTLSKADYEKHKVYACEVTHQGLSSPVTKSFNRGEC | 0.96 nM | – | – | –
3 | C33B806 (antibody, huIgG4 PAA; HC C33H69, LC C4LL152 (same V region as C33B101); also called C33F106) heavy: QLQLQESGPGLVKPSETLSLTCTVSGGSISSSSYYWGWIRQPPGKGLDWIGSINYSGSTYYNPSLKSRVTISVDTSKIQFSLKLRSVTAADTAVYYCARLDGYESPFDYWGQGTLVTVSSASTKGPSVFPLAPCSRSTSESTAALGCLVKDYFPEPVTVSWNSGALTSGVHTFPAVLQSSGLYSLSSVVTVPSSSLGTKTYTCNVDHKPSNTKVDKRV[in this place human IgG4 Fc with S228P F234A L235A (EU numbers)] light: DIQMTQSPSSVSASVGDRVTITCRASQGISSWLAWYQQKPGKAPKLLIYAASSLQSGVPSRFSGSGSGTDFTLTISSLQPEDFATYYCQQANSFPFTFGPGTKVDIKRTVAAPSVFIFPPSDEQLKSGTASVVCLLNNFYPREAKVQWKVDNALQSGNSQESVTEQDSKDSTYSLSSTLTLSKADYEKHKVYACEVTHQGLSSPVTKSFNRGEC | – | no binding | 0.00318 s⁻¹ | 0.00136 s⁻¹
